Measurements: the supplement of paper PMC11417369
The list shows a part of the results.

What follows are sequences tested on PF3D7_0420300 AP2 domain 1 (GST-tagged) (assay: gcPBM binding intensity (ln(normalized median fluorescence intensity)); higher = stronger DNA binding).
Summary of the method: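 Binding intensity is the highest Masliner-normalised natural-log median intensity over replicate spots in either probe orientation. To obtain it, GST-tagged P. falciparum DNA-binding domains made in E. coli were incubated for 1 h on an Agilent 4 × 180k array of primer-extended double-stranded 36-bp intergenic genomic probes plus negative controls. Detection used Alexa488 anti-GST antibody with scanning at 488 nm.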

Sequence	gcPBM binding intensity (ln)
TGAACACACGAGCACACACACACATCTATATTTATA [CACACA_site6607]	10.1
TGGAATAATACGCGTACACACATATATATATTAATA [CACACA_site131]	9.6
AGGTATCAAAAATATGCATGCAATATTTTATGTAAT [TGCATGCA_site1055]	9.16
AAAATATAATATAATGCACACATAAAACAAAAAAAA [CACACA_site8989]	9.74
GAATAATATATATATTGTACTTTTTATTTATATTAT [XGTACX_site3180]	9.26
AAAAAAAAATTAATATATAAAAGGATATATATATAT [GTGCAC_negctrl_site449]	9.03
ATATATATATTTATATGTACGAAATATAAAAAAAAA [XGTACX_site5054]	9.19
CTTTTTTTTTTTTTTACACACCCAAATCACATACAT [CACACA_site4051]	9.42
CTTATCAAAAAAAAAGCATGCCACAGGCAAAAGGTA [TGCATGCA_site574]	9.39
CACCTTATAAATACTGCACACATAAAATATATATTA [CACACA_site8908]	9.55
ACATATAAATATATTACACACACACTAAAAAAATAA [CACACA_site6209]	10.1
ATATATATATATATATGTACATATATACATATACAT [XGTACX_site2350]	9.22
CGCCCACAGATATATACACACATATATAAATAAATA [CACACA_site6877]	9.37
TATGCTTTGATGAAGACACACATATAGAAGCGTATT [CACACA_site1925]	9.18
AAAACTATTTCTTTCAGTACATATTTGGACTTATAT [XGTACX_site4977]	9.09
TATGTTATAAAATATATATTATAATATGTATATATA [XGTACX_negctrl_site233]	9.01
TACTTTTATAAAAATTGTACAAAAAAAAAAAAAAAA [XGTACX_site2266]	8.66
ATATAAATTTAATACACACCCAAAAAAAAAAAAAAA [CACACA_site3750]	9.37
ATAATAAGCAGACACACACACACAAAAAAAAAAAAA [CACACA_site6477]	9.77
TAAATAAATACATACACACACATACAGATATATATA [CACACA_site5690]	10.1
TTAACATACACTCTAGTGCATATATATAACAAAATA [GTGCAC_site9724]	8.96
ATTAAAACACAATATTCACACATGTATATTATATAT [CACACA_site5191]	9.45
AATTTAAATCTTCAAAGTACTAAAAAAAAAAATAAT [XGTACX_site8566]	9.29

Sequence	gcPBM binding intensity (ln)
ATCATATTTATATTGGTGCATTATGCATGAAATTTA [GTGCAC_site9571]	9.1
AAACGATTAATGTGTACACACATAGTTATAAACATA [CACACA_site7073]	9.64
TTACACATGTATTTGGTGCATGTTGTTAACAAAATA	9.07
TCAAATTACTAAAATACACACATATTATAGATATAT [CACACA_site7233]	9.53
TGTATATATAATAAAACACACATTTTTAATGTGCTC [CACACA_site1437]	9.22
GTTTTATAAAAAGGCGCACACATATACATAAATATA [CACACA_site1864]	9.67
TAAATACAAAAATGCACACGAAAAGTAATATATATA [CACACA_site6151]	9.64
GATAAAGTACTTTATACACACAAATATTTATATATA [CACACA_site3974]	9.45
AAAAAGAAAATATATACACACCAAAAAAAAAAAAAA [CACACA_site5698]	9.46
TATTTTAACATGTTTTCAAAAATAAAACATATAAAT [CACACA_negctrl_site1598]	8.94
AAACATTTACTATATTGTACTTAAGATCTTATCGTA [XGTACX_site3919]	9.06
TAATATGACATAAGGGGTACTATATATATATATATT [XGTACX_site386]	9.31
GAACTTTACAACCCAACACACAAAAAAGAAAAGAAA [CACACA_site1717]	9.62
ATTGGTGTATGTTTATGTACTTATCACAATTATGAA [XGTACX_site7055]	9.41
ATATGTTCATTTAAAAGTACTTAATATAACATTTTT [XGTACX_site3332]	9.11
AATAGGAAAAGAAAAGCACACACATAAATAAATATA [CACACA_site8062]	10.1
TATTCCTATATAAAGACACACATATGTAACTACGAT [CACACA_site4139]	9.49
TGTGTTATATATAAAGAAAAAAAAAAAAAATATATA [CACACA_negctrl_site567]	9.19
AAAAATTTAATTATTTGTACATAAAATACATTTCTG [XGTACX_site791]	8.96
TGTACAAATTATACTTCGAACGAAGGGCATACATAT [XGTACX_negctrl_site37]	9.43
TATTTGTGTATTTTTACACACATTAATATATTTATA [CACACA_site7562]	9.48
TATATATATATTATATGTACACATTTGTGAATTATT [XGTACX_site5848]	9.14
TATAGATAACAAAAGTGTACATGTTGTATACACATG [XGTACX_site3471]	9.27

Sequence	gcPBM binding intensity (ln)
TATATATATAAACACACACACACACCCAAGCGTAGC [CACACA_site4210]	10.1
AACAACTATTACTGCACACATTCTTACACTATATAA [CACACA_site654]	9.75
TTATAAAATATTTTTTGTACACATAATAGTAAGACT [XGTACX_site933]	9.12
CTTATATTTAGACACACACACAATAAAATGAAAAAA [CACACA_site1031]	9.94
AACCATGTTAACAACGCATGTATATCTATGGGTTTA [TGCATGCA_site419]	9.18
GATTAATACACATTCTTCCGACATAATAAGAAAAAG [GTGCAC_negctrl_site7]	9.24
GATTATTTTATAAGTACACACATTTATCTATAATAA [CACACA_site7256]	9.4
AATACATGCTTATTTTAACACACAAATGGTAGTAAT [CACACA_site8154]	9.54
CACCCACACCAACACACACACATATATAATATATAT [CACACA_site595]	10.1
CCATAATATTATAGACGTACGAATATATATAAAAGA [XGTACX_site7295]	9.4
TTTTTTAAATGTCATTGTACATAATTCAATATATAA [XGTACX_site5]	8.84
AGCTAATATATCTTATATTCATATAAAAAAATATAT [CACACA_negctrl_site1786]	8.94
TGACTTTTTTTATGTTGTACTTATTATAAAAAAAAT [XGTACX_site7736]	9.18
AATACATCATTAAAATGTACATATATATATACATTA [XGTACX_site132]	9.16
ATTATAATAATGTGATGTACATTAATTGTCTTCCTA [XGTACX_site5404]	9.25
ATATATATTAATTTTGTGCACAAATGGAAATGTTTG [GTGCAC_site9971]	9.25
GAAATAAGGGTTATTTCACACATTGCATGTATTTTC [CACACA_site5752]	9.41
AAATACTTAACATTGGTGCATATTTGTAAAATTATT [GTGCAC_site9515]	9.22
TTTTTTTTTTTTTTATGTACTAAAAAATGAAAAATA [XGTACX_site6812]	8.58
ATGCAATAATAATATTGTACGCATATATTTTTTACT [XGTACX_site3384]	9.28
AGAATACAAAATTGCACACATATTGTGAAAATGTTA [CACACA_site4005]	9.48
TTTTGGCTTCTAATATTATACAAAATGGTAAGGAAA [TGCATGCA_negctrl_site169]	8.91
TTATTTATTTATTGGGTGCACTTGATTTAAATATGC	9.06

Sequence	gcPBM binding intensity (ln)
AAAAAAAAAAAAAAAACACACACATATATATAATAT [CACACA_site9038]	9.86
TTTGTCAAATAATATTGTACTAAAAAATTTTGCCTT [XGTACX_site7485]	9.04
TATTTGTAATATAACACACACAAAAAAAGACTCGGA [CACACA_site1681]	9.9
ATACACACAGCCTAAACATGCATATAGAAAAAAGAA [TGCATGCA_site1028]	9.59
TGTTTATACATCAGGTGTACGCAAAATAATTGTATG [XGTACX_site206]	9.29
TTTATTTACTATTAAAGTACTAAATCATATAATTAT [XGTACX_site2580]	9.01
TATACATATACATATACACACACACCCATAAATAAA [CACACA_site8372]	9.99
TTAACACATGCTTGGTCACACACGTATGCATATTTA [CACACA_site2127]	9.53
GTGTGATATAATTTTTTTAGAGCTTTATAATATTAT [CACACA_negctrl_site233]	9.27
TATGTTGATGATATTACACACCCAATGAGAAAAGGA [CACACA_site7060]	9.5
CAACCATTTGTAGGTAAACACACATTATTATTAATA [CACACA_site8842]	9.34
GTTAAGCAATATATATGTACTTATGGAATAGAAAAA [XGTACX_site3693]	9.25
AAGTTACAGAATATCACACATAAATTATCTGTATAT [CACACA_site5116]	9.3
TCAATTAATTATTTTTGTACACAAGAATTACTGAAT [XGTACX_site6401]	8.96
TTTTTATTAAGACATGCATGGAAACGCACTATTTTA [TGCATGCA_site999]	9
TATATATGCATTAAATGATGTTCCTGTTTTTTAAAA [CACACA_negctrl_site1378]	9.18
ATACGAAGTACGTACACACACTTATATGTTACTAAA [CACACA_site7812]	9.51
AATAAATAAATATATACACACATATATGTCTACATA [CACACA_site3158]	9.5
TTTATATCATTTCTTAAAAAAAAGGAGGTAATAGAC [TGCATGCA_negctrl_site555]	9.3
TTGCATTACGAACATACACACAGAATAACTGAAAAC [CACACA_site3025]	9.75
